# According to PubChem BioAssay AID624417 (National Center for Advancing Translational Sciences (NCATS), 2012):
# About 6,400 (1.6%) of roughly 410,000 compounds were called active. This list was built around the results that the source calls inconclusive (neither active nor inactive); the mix of calls is not that of the screen. Calls follow the shape of the dose curve; as a rule, active = well fitted inhibition curve with a large enough effect; inconclusive = small, poorly fitted or top-dose-only effect; inactive = no such curve, though single readings can be large or run the other way. No potency is given beside an inconclusive call; the fits are too rough.
# Biological target: Glucagon-like peptide 1 receptor (Homo sapiens) (UniProt P43220)
# Assay: qHTS of GLP-1 Receptor Inverse Agonists (Inhibition Mode); also: nearly all actives have a fitted effect of over 55% in size
# Details: HEK293 GLP-1R CRE-luciferase, luminescence, 24 h, GLP-1R form is constitutively active; series mostly up to 38.3 µM
# Summary of the method: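 HEK293 cells stably co-expressing constitutively active GLP-1R and a cAMP-responsive luciferase reporter were seeded in DMEM with 10% Nu serum, given compounds after 12 h, and incubated 24 h at 37 deg C. Luminescence was then read.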
# Potency is read from the fitted curve at half-maximal effect; tags tell the direction and shape of the fitted curve.
# Sequence of UniProt P43220 (P43220 whole entry, looked up): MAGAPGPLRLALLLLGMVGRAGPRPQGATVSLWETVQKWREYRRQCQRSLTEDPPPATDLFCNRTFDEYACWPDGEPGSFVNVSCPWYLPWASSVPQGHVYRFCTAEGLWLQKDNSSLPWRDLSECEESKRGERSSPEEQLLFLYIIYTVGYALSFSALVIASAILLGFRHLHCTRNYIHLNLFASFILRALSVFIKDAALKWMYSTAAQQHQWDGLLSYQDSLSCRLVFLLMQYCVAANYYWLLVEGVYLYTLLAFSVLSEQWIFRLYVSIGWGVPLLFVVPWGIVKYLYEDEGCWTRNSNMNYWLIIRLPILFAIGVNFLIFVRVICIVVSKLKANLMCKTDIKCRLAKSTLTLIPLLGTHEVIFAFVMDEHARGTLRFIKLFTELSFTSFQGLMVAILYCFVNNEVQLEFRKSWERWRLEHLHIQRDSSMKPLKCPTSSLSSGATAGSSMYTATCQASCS
row,SMILES,Potency
1,Cc1ccc(C(=O)NC(C#N)=C(Cl)Cl)cc1,"inconclusive [inhibitor, single point]"
2,Cc1nc2cc(-c3ccc(Cl)cc3)nn2c(C)c1CCC(=O)NC(C)c1ccc2c(c1)OCCO2 (configuration not stated),"inconclusive [inhibitor, partial curve, poor fit]"
3,CCC(=O)NNc1nc2c(C)cccc2s1,inactive
4,O=C(c1cc2c(ccc3ccccc32)o1)N1CCCCC1,"inconclusive [inhibitor, single point]"
5,Cc1ccc2[nH]c3c(=O)n(N)c(C)nc3c2c1,inactive
6,CCCCOc1cccc(C(=O)N(Cc2ccccc2)C2CCS(=O)(=O)C2)c1 (configuration not stated),inactive
7,COc1ccc(-c2[nH]c(-c3cccc(OC)c3)nc2SCC(=O)Nc2ccc3c(c2)OCO3)cc1,"inconclusive [inhibitor, single point]"
8,Cc1cc(NC(=O)CSc2cc(Cl)ccc2Cl)n(-c2ccccc2)n1,"inconclusive [inhibitor, single point]"
9,O=S(=O)(c1ccc(NC(=S)N2CCN(c3ccccc3F)CC2)cc1)N1CCOCC1,"inconclusive [inhibitor, single point]"
10,CCOC(=O)C1=NN(c2ccccc2C)C2=NC(C)=C(C(=O)OC)C(c3cccc(OC)c3)N12 (configuration not stated),"inconclusive [inhibitor, single point]"
11,Cc1ccc(NC(=O)CSc2nnnn2-c2ccc3c(c2)OCO3)cc1C,"inconclusive [inhibitor, partial curve]"
12,CN(C)C(=O)c1ccc(-n2nc(C(F)(F)F)c3c2CCCC3)cc1,"inconclusive [inhibitor, single point]"
13,O=C(C=Cc1ccc(Cl)s1)c1ccc(Cl)s1,"inconclusive [inhibitor, partial curve, poor fit]"
14,O=C1/C(=C\c2cccc(O)c2)SC(=S)N1Cc1ccccc1,"inconclusive [inhibitor, single point]"
15,CC(=O)Nc1cccc(-c2cc(NC(C)=O)c3ncc(-c4ccc(F)cc4)n3c2)c1,"inconclusive [inhibitor, partial curve, poor fit]"
16,FC(F)(F)c1ccc(NC(=S)NC2CCCCC2)cc1,"inconclusive [inhibitor, partial curve, poor fit]"
17,Cc1ccc(-c2cnc(C3CC3)o2)cc1S(=O)(=O)Nc1ccccc1,"inconclusive [inhibitor, full curve, poor fit]"
18,O=C(CN1c2cccc3cccc(c23)S1(=O)=O)NCc1ccc(F)cc1,"inconclusive [inhibitor, single point]"
19,S=C(Nc1ccccc1Oc1ccccc1)Nc1cccc(Cl)c1Cl,"inconclusive [inhibitor, single point]"
20,CN1CCN(C2(CNC(=O)c3ccc(C(C)(C)C)cc3)CCCCC2)CC1,"inconclusive [inhibitor, partial curve]"
21,CC(Cc1c[nH]c2ccccc12)C(=O)N1CCN(c2ccccc2F)CC1 (configuration not stated),"inconclusive [inhibitor, partial curve, poor fit]"

row,SMILES,Potency
1,C=CCn1c(SCC(=O)NC(=O)NCc2ccco2)nc2sc(C)c(C)c2c1=O,"inconclusive [inhibitor, single point]"
2,COc1cccc(-c2cc(C(=O)Nc3c(C)nn(Cc4ccccc4Cl)c3C)no2)c1,"inconclusive [inhibitor, partial curve, poor fit]"
3,Cc1ccc(CNC(=O)c2sc3nc[nH]c(=O)c3c2C)cc1,inactive
4,Cc1ccc(O)c(NC(=O)Cc2ccc3ccccc3c2)c1,"inconclusive [inhibitor, single point]"
5,COc1ccc(-n2c(=O)c(CCC(=O)N(C)Cc3ccccc3C)nc3ccccc32)cc1,"inconclusive [inhibitor, single point]"
6,Clc1ccc(-c2nc3cnccn3c2Nc2ccc3c(c2)OCO3)cc1,"inconclusive [inhibitor, partial curve, poor fit]"
7,Cc1cccc(NC(=O)c2cccc(S(=O)(=O)N(C)C3CCCCC3)c2)n1,"inconclusive [inhibitor, single point]"
8,Cn1cc(SCC(=O)N2CCCc3ccccc32)c2ccccc21,"inconclusive [inhibitor, single point]"
9,Cc1cccnc1C1=NOC(Cc2ccccc2)C(=O)N1CCOc1ccc(F)cc1 (configuration not stated),"inconclusive [inhibitor, single point]"
10,CC(C)C[C@H](NC(=O)c1nc[nH]c1C(=O)N(C)Cc1ccccc1)C(=O)OCc1ccccc1,"inconclusive [inhibitor, single point]"
11,Cc1cc(C)c2nc(N(CCN(C)C)C(=O)c3ccc4ccccc4c3)sc2c1,"inconclusive [inhibitor, partial curve, poor fit]"
12,CNC(=O)NC(=O)C(C)OC(=O)CCCc1nc2ccccc2s1 (configuration not stated),inactive
13,COc1ccc(Cl)cc1NC(=O)CN(C)CC(=O)Nc1cccc(S(=O)(=O)N2CCCC2)c1,"inconclusive [inhibitor, partial curve, poor fit]"
14,Cc1cccc(C)c1NC(=O)COC(=O)c1c(C)nn(-c2ccccc2)c1C,inactive
15,CCC1(C)CC(=O)c2c(ccc3oc(C(=O)NCc4ccccc4)c(C)c23)O1 (configuration not stated),"inconclusive [inhibitor, single point]"
16,Nc1ccc(C(=O)N/N=C/c2cn(Cc3ccccc3)c3ccccc23)cc1,"inconclusive [inhibitor, partial curve, poor fit]"
17,Cc1ccccc1CC1(CO)CCCN(Cc2ccccc2Cl)C1 (configuration not stated),"inconclusive [inhibitor, single point]"
18,C=CCc1cccc2cc(C(=O)NC3CCCC3)c(=O)oc12,"inconclusive [inhibitor, single point]"
19,Cc1ccc(SCc2c(C(=O)N/N=C/c3ccccc3)nnn2-c2nonc2N)cc1,"inconclusive [inhibitor, single point]"
20,Clc1cccc(/C=N/Nc2ncnc3ccccc23)c1,"inconclusive [inhibitor, single point]"
21,CCOc1ccc(C(=O)/C=C/c2cn(CC(O)CN3CCCCCC3)c3ccccc23)cc1 (configuration not stated),"inconclusive [inhibitor, partial curve, poor fit]"

row,SMILES,Potency
1,CC(C)(C)c1ccc(NS(=O)(=O)c2ccc(N)cc2)cc1,"inconclusive [inhibitor, single point]"
2,OC[C@@H]1CN(Cc2cccs2)C[C@H](n2cnc3c(NC4CCCC4)ncnc32)O1,inactive
3,CCSc1nc(-c2ccccc2)c(-c2ccccc2)n1CC(O)CO (configuration not stated),"inconclusive [inhibitor, single point]"
4,CC(=NNC(=O)c1cccc(S(=O)(=O)N2CCOCC2)c1)c1ccc(Cl)cc1,"inconclusive [inhibitor, partial curve, poor fit]"
5,CCCCN(CC)CCNC(=O)c1c(C)oc2ncnc(N3CCOCC3)c12,inactive
6,c1ccc(OCc2nc3c4c(ncn3n2)-c2ccccc2CC42CCCC2)cc1,inactive
7,CCOC(=O)C1=CCN(S(=O)(=O)c2ccccc2F)C1c1cccc(Br)c1 (configuration not stated),"inconclusive [inhibitor, partial curve, poor fit]"
8,CC1(C(=O)Nc2ccc3c(c2)OCO3)CCN1C(=O)Cc1ccc(-c2ccccc2)cc1 (configuration not stated),"inconclusive [inhibitor, single point]"
9,O=C(c1ccoc1)N1CCC2(CC1)Oc1ccc(F)cc1C(=O)C21CC(c2ccccc2)=NO1 (configuration not stated),inactive
10,Cc1ccc(C)c(S(=O)(=O)N2CCN(C(=O)c3cncc(Br)c3)CC2)c1,inactive
11,C[C@@H](NC(=O)Cn1ccc(NC(=O)OCc2ccccc2)nc1=O)c1cccc2ccccc12,"inconclusive [inhibitor, partial curve, poor fit]"
12,Cc1cccc(C)c1Nc1c(-c2ccccc2F)nc2cccc(C)n12,"inconclusive [inhibitor, single point]"
13,CC(=O)CC1c2cc(F)ccc2C=C(c2ccsc2)N1c1ccc(-c2cccnc2)cc1 (configuration not stated),"inconclusive [inhibitor, single point]"
14,CN1CCN(CC#CCn2c3ccccc3c3ccccc32)CC1,"inconclusive [inhibitor, single point]"
15,Cc1cc(C)c(S(=O)(=O)Nc2ccc(-c3ccc(N4CCC(C)CC4)nn3)cc2)cc1C,"inconclusive [inhibitor, partial curve, poor fit]"
16,CC1CCN(c2cc(N3CCOCC3)c(F)cc2[N+](=O)[O-])CC1,"inconclusive [inhibitor, partial curve, poor fit]"
17,Cc1cc(C)nc(/N=C(\N)Nc2ccc(-c3ccccc3)cc2)n1,"inconclusive [inhibitor, full curve, poor fit]"
18,O=C(COC(=O)c1c(Cl)cccc1Cl)Nc1cc(Cl)ccc1Oc1ccccc1,"inconclusive [inhibitor, partial curve, poor fit]"
19,OC(c1ccccc1)(c1nc(-c2cccc(F)c2)cs1)C(F)(F)F (configuration not stated),"inconclusive [inhibitor, single point]"
20,COc1cccc(CC(=O)Nc2ccc3c(c2)c(=O)n(C)n3-c2ccc(C(C)(C)C)cc2)c1,"inconclusive [inhibitor, single point]"
